Measurements published in publication PMC12040169 (PLOS Biology, 2025).
The other results are listed elsewhere or left out.

System: T1, C. trachomatis L2/434/Bu expressing GFP (CTL2-GFP)
T1 construct: L2/434/Bu GFP intracellular growth in HeLa cells
Parameters: species or system HeLa; C. trachomatis total inclusion area by high-content imaging, normalised to DMSO
Conditions: total inclusion area; 28.5 h, 10 µM; inhibitor
Method in brief: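 Bulk GFP and resorufin signals were read first. Wells were then fixed, stained with Hoechst and imaged to detect GFP inclusions and host nuclei. MICs followed the previously described calculation.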

Row | SMILES | % of control remaining
1 | CN1CCN(C(=O)c2ccc(Cl)cc2)CC1 [CBK126096] | 125.159
2 | COc1ccccc1-c1nnc(SC)n1-c1ccc(C)cc1 [CBK076670] | 95.053
3 | CN1CCN(c2cc(-c3cccc(CO)c3)nc3ccnn23)CC1 [CBK037099] | 118.634
4 | CSc1c(C#N)c(-c2cc(C(C)(C)C)on2)nn1C [CBK006360] | 103.319
5 | Nc1nc2c(nc(Br)n2[C@H]2C[C@@H](O)[C@@H](CO)O2)c(=O)[nH]1 [CBK201333] | 125.758
6 | c1ccc(CCNc2nccnc2-c2ccoc2)nc1 [CBK036790] | 124.045
7 | Cn1c(SCC(=O)N2CCN(c3ccccc3)CC2)nc2cc(Cl)ccc21 [CBK298295] | 111.634
8 | CC(C)(C)OC(=O)N1CCC[C@H]([C@H](O)c2cccs2)C1 [CBK282301] | 112.025
9 | Cc1cc(Oc2ccccc2)nc(NCc2ccccc2)n1 [CBK003557] | 81.1407
10 | CC1CCCCN1C(=O)Cn1c(C2CCOCC2)cc2cccnc21 (centres unmarked) [CBK284675] | 94.5895
11 | Cc1cc(C)nc(NC(=N)NCc2ccccc2)n1 [CBK288157] | 70.8493
12 | Cc1nc(S(=O)(=O)CCn2cccn2)n(C2CCCCC2)c1C [CBK305217] | 72.237
13 | Cc1nc2nc(N)nn2c(C)c1CCC(=O)NCc1cccc(Cl)c1 [CBK304993] | 56.084
14 | O=C(NC(NC(=O)c1ccccc1F)c1ccc2c(c1)OCO2)c1ccccc1F [CBK265742] | 88.4984
15 | O=S(=O)(NC1CCCCC1Sc1nnc(Nc2ccccc2)s1)c1ccccc1 (centres unmarked) [CBK266378] | 120.494
16 | COc1ccccc1N/C(=N\OCc1ccc(Cl)cc1Cl)c1nonc1N [CBK018391] | 66.5422
17 | COc1cc(/C=c2\sc3nc(-c4ccccc4OC(C)=O)nn3c2=O)ccc1OCc1ccccc1 [CBK264575] | 112.479
18 | CCn1c(CN2CCOCC2)nnc1SCC(=O)Nc1cc(Cl)ccc1C [CBK270183] | 96.652
19 | COc1cccc(C2(NC(=O)CCn3nc(C)cc3C)CCCC2)c1 [CBK283749] | 69.3758
20 | COc1cc(-c2cn3ccnc3c(NCC3CC3)n2)ccc1O [CBK037538] | 101.252
21 | O=C1CC(c2ccccc2)CC(=O)N1c1nnn[nH]1 [CBK291154] | 108.802
22 | COc1cccc(/C=C2/NC(=O)N(Cc3ccc(F)cc3)C2=O)c1OCc1cccc(C(=O)O)c1 [CBK265282] | 98.2578
23 | O=C(C1CCCC1)N1CCCCC1c1n[nH]cc1-c1ccncc1 (centres unmarked) [CBK283427] | 99.3057
